Changes are numbered by the printed parent chain.
B1: VLX8hum_06 IgG2: humanized anti-CD47 mAb (antibody)
heavy: QVQLVQSGAEVKKPGASVKVSCKASGYSFTNYYIHWVRQAPGQGLEWMGYIDPLNGDTTYNQKFKGRVTMTRDTSTSTVYMELSSLRSEDTAVYYCARGGKRAMDYWGQGTLVTVSSASTKGPSVFPLAPCSRSTSESTAALGCLVKDYFPEPVTVSWNSGALTSGVHTFPAVLQSSGLYSLSSVVTVPSSNFGTQTYTCNVDHKPSNTKVDKTVERKCCVECPPCPAPPVAGPSVFLFPPKPKDTLMISRTPEVTCVVVDVSHEDPEVQFNWYVDGVEVHNAKTKPREEQFNSTFRVVSVLTVVHQDWLNGKEYKCKVSNKGLPAPIEKTISKTKGQPREPQVYTLPPSREEMTKNQVSLTCLVKGFYPSDIAVEWESNGQPENNYKTTPPMLDSDGSFFLYSKLTVDKSRWQQGNVFSCSVMHEALHNHYTQKSLSLSPGK
light: DIQMTQSPSSLSASVGDRVTITCRASQSISNYLNWYQQKPGKAPKLLIYYTSRLYSGVPSRFSGSGSGTDFTLTISSLQPEDFATYYCQQGNTLPWTFGQGTKVEIKRTVAAPSVFIFPPSDEQLKSGTASVVCLLNNFYPREAKVQWKVDNALQSGNSQESVTEQDSKDSTYSLSSTLTLSKADYEKHKVYACEVTHQGLSSPVTKSFNRGEC
B2: VLX8hum_08 IgG2: humanized anti-CD47 mAb (antibody)
heavy: EVQLVQSGAEVKKPGESLKISCKGSGYSFTNYYIHWVRQMPGKGLEWMGYIDPLNGDTTYNQKFKGQVTISADKSISTAYLQWSSLKASDTAMYYCARGGKRAMDYWGQGTLVTVSSASTKGPSVFPLAPCSRSTSESTAALGCLVKDYFPEPVTVSWNSGALTSGVHTFPAVLQSSGLYSLSSVVTVPSSNFGTQTYTCNVDHKPSNTKVDKTVERKCCVECPPCPAPPVAGPSVFLFPPKPKDTLMISRTPEVTCVVVDVSHEDPEVQFNWYVDGVEVHNAKTKPREEQFNSTFRVVSVLTVVHQDWLNGKEYKCKVSNKGLPAPIEKTISKTKGQPREPQVYTLPPSREEMTKNQVSLTCLVKGFYPSDIAVEWESNGQPENNYKTTPPMLDSDGSFFLYSKLTVDKSRWQQGNVFSCSVMHEALHNHYTQKSLSLSPGK
light: B1 light
B3: VLX8hum_09 IgG2: humanized anti-CD47 mAb (antibody)
heavy: B1 heavy with A16S, N61A, K65Q, M70I, R72A, T74E, V79A
light: B1 light
B4: VLX8hum_07 IgG2: humanized anti-CD47 mAb (antibody)
heavy: B1 heavy with A16S, M70I, R72A, T74E, V79A
light: B1 light

biological target: T1, human CD47 on hRBCs (Homo sapiens, UniProt Q08722); experiment: Flow cytometry binding to freshly isolated human red blood cells; settings: compared with OV10 hCD47 tumor cells
T1 construct: freshly isolated human red blood cells (hRBCs), which display CD47 on their surface; endogenous in cells; host or cells: human red blood cells from blood of normal volunteers
T1 sequence (Q08722 19-323): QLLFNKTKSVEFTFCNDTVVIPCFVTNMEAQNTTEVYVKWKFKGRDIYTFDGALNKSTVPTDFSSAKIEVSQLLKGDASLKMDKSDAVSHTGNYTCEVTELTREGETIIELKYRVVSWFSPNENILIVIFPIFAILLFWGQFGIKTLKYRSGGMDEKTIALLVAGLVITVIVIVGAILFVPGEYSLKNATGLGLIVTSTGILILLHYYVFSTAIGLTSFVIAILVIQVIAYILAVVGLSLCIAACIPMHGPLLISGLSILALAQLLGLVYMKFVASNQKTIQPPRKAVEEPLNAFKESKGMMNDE
Experimental: Binding activities of chimeric and humanized VLX4, VLX8, and VLX9 mAbs to human CD47 on hRBCs were also determined using flow cytometry.

Row | Molecule | binding to hRBCs (in words)
1 | B1 | Kd values similar to the values obtained for OV10 hCD47 tumor cells
2 | B2 | Kd values similar to the values obtained for OV10 hCD47 tumor cells
3 | B3 | Kd values similar to the values obtained for OV10 hCD47 tumor cells
4 | B4 | Kd values similar to the values obtained for OV10 hCD47 tumor cells

Reference: patent publication US20190309066A1, “COMBINATION THERAPY FOR THE TREATMENT OF SOLID AND HEMATOLOGICAL CANCERS” (Arch Oncology, Inc., priority 2017, published 2019)
